# PubChem BioAssay (Tox21)
# “And” between values parts separate entries of the source, which are not always exact repeats. Equal entries are not always repeated. This list was built around the results that the source calls inconclusive (neither active nor inactive); the mix of calls is not that of the screen. For some of these results: Where the call is inconclusive, the potency comes from a doubtful curve fit. A structure can be active in one record and inactive in another. The source made the active and inactive calls. Calls follow the shape of the dose curve; as a rule, active = well fitted curve in the direction sought with a large enough effect in the repeat runs; inconclusive = weak or mixed curves; inactive = no such curve, though single readings can be large; an effect the other way counts as inactive or inconclusive.
# Assays:
# [1] = A CellTox Green Cytotoxicity Assay to monitor cytotoxicity in HEK293 cells - 32 hour (AID 1224881); also: nearly all actives have a fitted effect of over 40% in size; also: potency is read from the fitted curve at half-maximal effect
# Method in brief: (§1)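 HEK293 cells premixed with CellTox Green dye were seeded at 600 cells/well and left 5 h at 37 C/5% CO2 before pin transfer of 23 nL compound in DMSO. Fluorescence from dye bound to dead-cell DNA was read during 40 h treatment.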
# [2] = A CellTox Green Cytotoxicity Assay to monitor cytotoxicity in HEK293 cells - 8 hour (AID 1224884); also: nearly all actives have a fitted effect of over 35% in size; also: potency is read from the fitted curve at half-maximal effect
# Method in brief: as §1
# [3] = qHTS RealTime-Glo MT Cell Viability Assay in HepG2 cells - 16 hour (AID 1224885); also: % is scaled to controls: 0 for no effect and ±100 for the full control effect; nearly all actives have a fitted effect of over 50% in size
# Method in brief: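 HepG2 cells (600/well) were dispensed with RealTime-Glo reagents, incubated 5 h at 37 °C, then treated with compounds in DMSO for up to 40 h. Nonlytic NanoLuc luminescence reflecting viable cells was read at each stated time point.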
# [4] = qHTS RealTime-Glo MT Cell Viability Assay in HEK293 cells - 24 hour (AID 1224886); also: nearly all actives have a fitted effect of over 50% in size; also: potency is read from the fitted curve at half-maximal effect
# Method in brief: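 HEK293 cells seeded with NanoLuc/prosubstrate reagent, rested 5 h at 37 C, then dosed and kept at 37 C up to 40 h. Nonlytic real-time luminescence from viable cells read at 0, 8, 16, 24, 32 and 40 h.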
# [5] = qHTS RealTime-Glo MT Cell Viability Assay in HEK293 cells - 8 hour (AID 1224887); also: nearly all actives have a fitted effect of over 50% in size; also: potency is read from the fitted curve at half-maximal effect
# Method in brief: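 HEK293 cells mixed with RealTime-Glo reagents (NanoLuc plus cell-permeant prosubstrate) at 600 cells/well, preincubated 5 h at 37 C/5% CO2, then given 23 nL compound in DMSO. Nonlytic luminescence from viable cells was read at 0, 8, 16, 24, 32 and 40 h.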
# [6] = qHTS assay to identify small molecule antagonists of the estrogen receptor alpha (ER-alpha) signaling pathway using the BG1 cell line in the presence of 0.1 nM 17-beta-estradiol - cell viability counter screen (AID 1259241); also: potency is read from the fitted curve at half-maximal effect; nearly all actives have a fitted effect of over 40% in size
# Method in brief: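 Estradiol-stimulated (0.1 nM) VM7Luc4E2 cells exposed to compounds 22 hr; viability measured by fluorescence of cleaved CellTiter-Fluor substrate after 30 min.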
# [7] = biological target: Estrogen receptor (Homo sapiens) (UniProt P03372); experiment: qHTS assay to identify small molecule antagonists of the estrogen receptor alpha (ER-alpha) signaling pathway using the BG1 cell line in the presence of 0.1 nM 17-beta-estradiol (AID 1259244); also: potency is read from the fitted curve at half-maximal effect; nearly all actives have a fitted effect of over 50% in size
# Method in brief: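 VM7Luc4E2 cells (endogenous full-length ER-alpha, stable 4xERE-luciferase) were grown 5 days in phenol red-free medium with charcoal-stripped FBS, then exposed 22 h at 37C to compounds plus 0.1 nM (final) 17beta-estradiol; ONE-Glo luminescence read-out.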
# [8] = A CellTox Green Cytotoxicity Assay to monitor cytotoxicity in HEK293 cells - 16 hour (AID 1224888); also: nearly all actives have a fitted effect of over 35% in size; also: potency is read from the fitted curve at half-maximal effect
# Method in brief: as §1
# [9] = biological target: Androgen receptor (Homo sapiens) (UniProt P10275); experiment: qHTS assay to identify small molecule antagonists of the androgen receptor (AR) signaling pathway using the MDA cell line in the presence of 0.5 nM R1881 (AID 1259243)
# Method in brief: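 MDA-kb2 human breast carcinoma cells carrying an MMTV-luciferase reporter (AR- and GR-responsive) were plated, rested 5 hr at 37C, dosed with compounds, then stimulated with 0.5 nM R1881 (final) for 16 hr; luminescence was read after ONE-Glo.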
# [10] = qHTS assay to identify small molecule antagonists of the androgen receptor (AR) signaling pathway using the MDA cell line in the presence of 0.5 nM R1881 - cell viability counter screen (AID 1259242); also: potency is read from the fitted curve at half-maximal effect; nearly all actives have a fitted effect of over 45% in size
# Method in brief: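 MDA-kb2 cells (human breast carcinoma, stably carrying MMTV-luciferase reporter) were exposed to compounds with 0.5 nM R1881 (final) for 16 hr at 37C, 0% CO2; viability then read as live-cell protease fluorescence (CellTiter-Fluor, 30 min) in the same wells.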
# [11] = A CellTox Green Cytotoxicity Assay to monitor cytotoxicity in HepG2 cells - 32 hour (AID 1224883); also: nearly all actives have a fitted effect of over 50% in size; also: potency is read from the fitted curve at half-maximal effect
# Method in brief: (§2)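 HepG2 cells were seeded together with the CellTox Green dye at 600 cells/well, left 5 h at 37 C/5% CO2, then given compounds in DMSO. Fluorescence from dye bound to dead-cell DNA was read repeatedly over 40 h of treatment at 37 C.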
# [12] = A CellTox Green Cytotoxicity Assay to monitor cytotoxicity in HepG2 cells - 8 hour (AID 1224890); also: % is scaled to controls: 0 for no effect and ±100 for the full control effect; nearly all actives have a fitted effect of over 45% in size
# Method in brief: as §2
# [13] = A CellTox Green Cytotoxicity Assay to monitor cytotoxicity in HepG2 cells - 0 hour (AID 1224882); also: % is scaled to controls: 0 for no effect and ±100 for the full control effect; nearly all actives have a fitted effect of over 35% in size
# Method in brief: as §2
# Tags tell the direction and shape of the fitted curve.
# Sequence of UniProt P03372 (P03372 whole entry, looked up): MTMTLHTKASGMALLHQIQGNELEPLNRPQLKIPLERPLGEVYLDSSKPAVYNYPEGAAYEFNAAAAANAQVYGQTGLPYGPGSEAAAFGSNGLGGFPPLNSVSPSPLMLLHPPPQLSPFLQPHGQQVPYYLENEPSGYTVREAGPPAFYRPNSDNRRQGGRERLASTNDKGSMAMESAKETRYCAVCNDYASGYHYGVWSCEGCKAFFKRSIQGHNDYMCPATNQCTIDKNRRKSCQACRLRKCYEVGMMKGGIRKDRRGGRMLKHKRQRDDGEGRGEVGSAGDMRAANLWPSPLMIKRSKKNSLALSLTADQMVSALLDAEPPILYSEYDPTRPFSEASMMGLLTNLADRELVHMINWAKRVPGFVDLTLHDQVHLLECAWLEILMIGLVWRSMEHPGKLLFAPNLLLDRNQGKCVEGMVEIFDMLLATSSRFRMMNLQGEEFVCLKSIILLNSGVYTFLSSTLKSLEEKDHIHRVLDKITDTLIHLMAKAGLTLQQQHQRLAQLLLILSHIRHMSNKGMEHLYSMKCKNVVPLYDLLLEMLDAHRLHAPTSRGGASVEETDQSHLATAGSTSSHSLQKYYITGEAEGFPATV
# Sequence of UniProt P10275 (P10275 whole entry, looked up): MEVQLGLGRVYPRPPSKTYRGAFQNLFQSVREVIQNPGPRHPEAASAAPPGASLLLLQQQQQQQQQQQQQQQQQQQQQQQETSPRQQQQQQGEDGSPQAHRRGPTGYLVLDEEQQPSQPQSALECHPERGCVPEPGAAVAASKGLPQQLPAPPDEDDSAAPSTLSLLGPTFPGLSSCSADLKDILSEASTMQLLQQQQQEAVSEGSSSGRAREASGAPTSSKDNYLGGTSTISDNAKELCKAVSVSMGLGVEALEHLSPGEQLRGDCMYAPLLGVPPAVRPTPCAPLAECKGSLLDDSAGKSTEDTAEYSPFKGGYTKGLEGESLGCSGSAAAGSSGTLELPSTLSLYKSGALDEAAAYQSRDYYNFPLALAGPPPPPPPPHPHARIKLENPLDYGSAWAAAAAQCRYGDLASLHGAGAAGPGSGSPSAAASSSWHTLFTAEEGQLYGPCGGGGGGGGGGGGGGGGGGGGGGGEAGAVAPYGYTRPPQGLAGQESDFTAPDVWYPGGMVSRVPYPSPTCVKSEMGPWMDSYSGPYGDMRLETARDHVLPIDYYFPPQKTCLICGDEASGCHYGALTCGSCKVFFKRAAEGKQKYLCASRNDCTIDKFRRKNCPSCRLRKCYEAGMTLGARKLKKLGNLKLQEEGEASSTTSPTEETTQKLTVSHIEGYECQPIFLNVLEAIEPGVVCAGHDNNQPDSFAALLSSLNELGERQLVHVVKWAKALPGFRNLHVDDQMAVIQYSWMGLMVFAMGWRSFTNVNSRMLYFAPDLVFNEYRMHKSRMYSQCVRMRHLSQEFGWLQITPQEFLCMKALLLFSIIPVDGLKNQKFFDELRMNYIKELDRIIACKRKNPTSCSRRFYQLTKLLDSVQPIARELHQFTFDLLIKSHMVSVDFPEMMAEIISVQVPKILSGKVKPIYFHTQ
compound,measurement,setting,value
Nc1nc(N)nc(Cl)n1,Potency,[1],inactive
same,Potency,[2],inactive
O=[N+]([O-])c1cccc2cccc([N+](=O)[O-])c12,Potency,[1],inactive
ClCC(Br)CBr (stereo unspecified),Potency,[1],inactive
CO/C=C(/C(=O)OC)c1ccccc1COc1cccc(C(F)(F)F)n1,Potency,[1],"inconclusive: 8.7 µM [activator, full curve, poor fit]"
same,Potency,[2],"inconclusive: 61.6 µM [activator, partial curve, poor fit]"
same,Potency,[3],inactive
same,Potency,[4],"inconclusive: 43.6 µM [cytotoxic, partial curve]"
same,Potency,[5],"inconclusive: 2.45 µM [rising, full curve]"
same,Potency,[6],"inconclusive: 3.85 µM [cytotoxic, full curve]"
same,Potency,[7],active: 2.17 µM
CCOS(=O)(=O)OCC,Potency,[1],inactive
same,Potency,[4],"inconclusive: 61.7 µM [cytotoxic, partial curve, poor fit] and inactive"
same,Potency,[5],inactive
same,Potency,[8],inactive
CNC,Potency,[1],"inconclusive: 1.23 µM [activator, partial curve, poor fit]"
CC(C)(OOC(C)(C)c1ccccc1)c1ccccc1,Potency,[1],active: 24.2 µM and active: 49 µM
same,Potency,[2],"inconclusive: 49 µM [activator, single point]"
same,Potency,[5],"inconclusive: 34.2 µM [cytotoxic, partial curve]"
same,Potency,[8],"inconclusive: 60.8 µM [activator, single point] and active: 43.6 µM"
same,Potency,[9],"inconclusive: 21.7 µM [inhibitor, full curve]"
Cc1ccccc1N,Potency,[1],inactive
CN(C)c1ccc(N=Nc2ccccc2)cc1,Potency,[1],"inconclusive: 61.7 µM [activator, single point]"
same,Potency,[2],"inconclusive: 61.7 µM [activator, partial curve, poor fit]"
same,Potency,[3],inactive
same,Potency,[4],"inconclusive: 19.5 µM [cytotoxic, full curve]"
same,Potency,[8],"inconclusive: 61.7 µM [activator, single point]"
same,Potency,[6],active: 54.5 µM
same,Potency,[10],"inconclusive: 24.4 µM [cytotoxic, partial curve]"
ClC1=C(Cl)[C@]2(Cl)[C@H]3[C@H]([C@H]4C=C[C@H]3C4)[C@@]1(Cl)C2(Cl)Cl,Potency,[1],"inconclusive: 61.6 µM [activator, single point]"
O=C(O)CC(O)(CC(=O)O)C(=O)O,Potency,[1],"inconclusive: 9.77 µM [activator, single point]"
same,Potency,[4],inactive
O=P1(N(CCCl)CCCl)NCCCO1 (stereo unspecified),Potency,[1],inactive
same,Potency,[2],"inconclusive: 4.96 µM [activator, single point]"
C[C@]12CC[C@H]3[C@@H](CCC4=CC(=O)CC[C@@H]43)[C@@H]1CC[C@@H]2OC(=O)CCc1ccco1,Potency,[1],"inconclusive: 26.8 µM [activator, single point]"
[O]=[Cr][O][Cr]=[O],Potency,[1],inactive
Nc1ccccc1,Potency,[1],"inconclusive: 26.8 µM [activator, single point]"
same,Potency,[2],"inconclusive: 26.8 µM [activator, single point]"
same,Potency,[8],"inconclusive: 26.8 µM [activator, single point]"
c1nc[nH]n1,Potency,[1],inactive
same,Potency,[8],inactive
OC[P+](CO)(CO)CO,Potency,[11],inactive
CCCCOCC1CO1 (stereo unspecified),Potency,[11],active: 43.6 µM
CON(C)C(=O)Nc1ccc(Cl)c(Cl)c1,Potency,[1],inactive
same,Potency,[5],"inconclusive: 54.9 µM [cytotoxic, partial curve]"
same,Potency,[7],"inconclusive: 77.3 µM [inhibitor, single point]"
CCC[N+](=O)[O-],Potency,[1],"inconclusive: 48.1 µM [activator, partial curve]"
same,Potency,[4],"inconclusive: 60.5 µM [cytotoxic, single point]"
same,Potency,[10],"inconclusive: 23.9 µM [cytotoxic, full curve]"
CCCCCCCCCCCCCCCC[n+]1ccccc1,Potency,[1],active: 34.2 µM [middle of 4 runs]
same,Potency,[6],"inconclusive: 67.6 µM [cytotoxic, single point] and inconclusive: 26.6 µM [cytotoxic, partial curve]"
same,Potency,[10],"inconclusive: 13.3 µM [cytotoxic, partial curve]"
CCCN(CCC)N=O,Potency,[11],inactive
same,Potency,[2],"inconclusive: 54.9 µM [activator, single point]"
same,Potency,[4],inactive
same,Potency,[12],inactive
CSC(=O)c1c(C(F)F)nc(C(F)(F)F)c(C(=O)SC)c1CC(C)C,Potency,[11],inactive
COC(C)(C)CCC[C@H](C)C/C=C/C(C)=C/C(=O)OC(C)C,Potency,[1],"inconclusive: 43.6 µM [activator, partial curve]"
same,Potency,[5],"inconclusive: 54.9 µM [cytotoxic, partial curve, poor fit]"
same,Potency,[8],"inconclusive: 61.6 µM [activator, single point]"
CC(Cc1ccccc1)N(C)Cc1ccco1 (stereo unspecified),Potency,[13],inactive
